From article PMC6919601, “Identification of Plasmodium dipeptidyl aminopeptidase allosteric inhibitors by high throughput screening” (PLoS ONE, 2019)
In all, about 110,000 compounds went through this assay and about 230 (0.21%) showed an effect of 50% or more. The list shows a part of the results.

Target: DPAP1 (Plasmodium falciparum, UniProt Q8IIJ9)
Experiment: primary screen, percent inhibition; read by cleavage of a fluorogenic dipeptide substrate; higher = more effect of the substance
Design: species or system P. falciparum D10 trophozoite lysates; single well
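Also: 30 min substrate incubation versus DMSO and 10 µM JCP410 controls.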

Sequence of DPAP1 (Q8IIJ9 whole entry, looked up): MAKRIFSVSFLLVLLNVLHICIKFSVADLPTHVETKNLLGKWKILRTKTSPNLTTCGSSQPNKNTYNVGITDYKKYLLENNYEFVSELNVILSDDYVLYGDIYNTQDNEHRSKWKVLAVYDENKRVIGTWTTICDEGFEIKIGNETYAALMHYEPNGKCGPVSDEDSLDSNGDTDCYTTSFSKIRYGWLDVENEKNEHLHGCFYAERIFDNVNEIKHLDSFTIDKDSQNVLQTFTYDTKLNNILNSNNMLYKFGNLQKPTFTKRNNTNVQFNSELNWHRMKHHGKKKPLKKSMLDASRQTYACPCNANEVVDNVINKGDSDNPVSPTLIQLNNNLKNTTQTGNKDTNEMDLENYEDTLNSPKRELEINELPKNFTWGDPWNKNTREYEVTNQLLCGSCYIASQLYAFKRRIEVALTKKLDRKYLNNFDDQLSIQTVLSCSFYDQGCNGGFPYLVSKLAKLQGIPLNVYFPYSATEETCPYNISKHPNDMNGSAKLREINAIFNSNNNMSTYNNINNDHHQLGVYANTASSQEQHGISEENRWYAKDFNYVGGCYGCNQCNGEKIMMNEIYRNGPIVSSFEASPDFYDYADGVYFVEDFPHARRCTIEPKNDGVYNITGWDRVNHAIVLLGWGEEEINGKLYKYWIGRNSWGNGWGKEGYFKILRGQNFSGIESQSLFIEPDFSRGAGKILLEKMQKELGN

In order of falling “% Inhibition @ 10 uM” value:
1. O=C1c2ccccc2-c2nc3nonc3nc21  32.5%
2. N#Cc1c(NC(=S)NC(=O)C23CC4CC(CC(C4)C2)C3)sc2c1CCCC2  10.7%
3. COC(=O)c1ccc(C2C3=C(O)CC(C)(C)CC3=NC(C)=C2C(=O)OCc2ccccc2)cc1 (stereo not shown)  7.24%
4. O=C(c1ccc(CS(=O)(=O)c2ccc(Br)cc2)o1)N1CCN(c2ncccn2)CC1  6.95%
5. CCC(C)NC(=O)CCc1nc(-c2ccc(C)cc2)no1 (stereo not shown)  6.64%
6. N=C1/C(=C\c2cccc3ccccc23)C(=O)N=C2SC(N3CCOCC3)=NN12  6.2%
7. CCOC(=O)c1cnc2c(-c3ccc(Cl)cc3)cnn2c1-c1ccccc1  4.74%
8. COc1ccc(-n2nc3c(N4CCC(C(=O)NCCC5=CCCCC5)CC4)nnc(C)c3c2C)cc1  4.21%
9. Cc1cc2c(c(=O)n1CC1CCCO1)C(c1ccccc1Br)C(C#N)=C(N)O2 (stereo not shown)  3.93%
10. CCOc1ccc2c(c1)sc1nc(-c3cc4cc(Cl)ccc4oc3=O)cn12  3.05%
11. O=C(CCN1CCCC1)N1N=C(c2ccc(Cl)cc2)CC1c1ccco1 (stereo not shown)  2.56%
12. CC1=C(C(=O)N2CCCCC2)C(c2ccc3c(c2)OCO3)C2=C(O)CC(C)(C)CC2=N1 (stereo not shown)  2.51%
13. CCOc1ccccc1C(=O)Nc1ccc(S(=O)(=O)N2CCC(C)CC2)cc1  1.79%
14. COCC1=Nc2ncnn2C(c2cc(OC)ccc2OC)/C1=C(/O)OC (stereo not shown)  1.73%
15. O=C(c1ccccc1)c1ccc(NC(=O)c2ccco2)cc1  0.907%
16. CCOc1ccc(OCc2cccc(C(=O)Nc3cc(C)on3)c2)cc1  0.709%
17. O=C(c1ccc(Cl)cc1)N1CCCCC(Sc2nnc3ccccn23)C1=O (stereo not shown)  0.147%
18. COCc1cc(C)nc2sc3c(c12)NC(c1ccccc1O)NC3=O (stereo not shown)  0.121%
19. COc1ccc(CN2CCN(c3cccc(C)c3C)CC2)c2ccccc12  0.0657%
20. COc1cccc(C2=NOC(C(=O)NCc3ccccc3)C2)c1 (stereo not shown)  -0.0115%
21. COc1ccc(NS(=O)(=O)c2cc(C(=O)Nc3ccccc3)ccc2OC)cc1  -0.132%
22. CC1(C)CC2=Nc3ncnn3C(c3ccc(C(C)(C)C)cc3)C2=C(O)C1 (stereo not shown)  -0.413%
23. O=C(Cn1nc(Cc2ccncc2)c2ccccc2c1=O)NCCCN1CCCCC1  -0.431%
24. Cc1cc2nc(COc3cc(C)c(Cl)c(C)c3)cc(=O)n2o1  -0.495%
25. O=C(Nc1c(Cl)cc(Cl)cc1C(=O)NCc1ccccc1)c1ccco1  -0.67%
26. C=CCn1c(SCC(=O)N2CCCCC2)nc2sc(C)c(C)c2c1=O  -0.725%
27. O=C(NCCN1CCCC1)c1ccc(CSc2nc3cccnc3n2Cc2ccc(F)cc2)cc1  -0.878%
28. COc1cccc2cc(-c3nc4ccccc4o3)c(=O)oc12  -0.969%
29. O=C(O)C1CCN(C(=O)c2ccccc2F)CC1  -0.992%
30. CC1CC(C)CN(CCNC(=O)c2cc3ccc4cccnc4c3[nH]2)C1 (stereo not shown)  -1.07%
31. Cc1cc(C(F)F)n2nc(C(=O)Nc3ccc(C)c(C)c3)nc2n1  -1.22%
32. COc1ccc(OC)c(CNC(=O)c2cc3c(-c4ccccc4F)nn(C)c3s2)c1  -1.43%
33. CNC(=O)/C(C#N)=C/c1c(Oc2cccc(C)c2C)nc2ccccn2c1=O  -1.43%
34. CC(C)c1ccccc1NC(=O)c1ccc(Br)o1  -1.56%
35. CN1CCC(N2CCN(C)CC2)CC1  -1.81%
36. CC(=O)c1cccc(C(=O)N[C@@H](CSCc2ccccc2)C(=O)NCC#N)c1  -1.83%
37. CCOC(=O)C1=C(CS(=O)(=O)c2ccccc2)NC(=O)NC1c1ccccc1C (stereo not shown)  -2.16%
38. CC(C)CCNS(=O)(=O)c1cc(Br)cnc1N  -2.84%
39. CC1CCCCN1C/C=C/c1ccc(N(C)C)cc1 (stereo not shown)  -3.15%
40. Cc1nnc2c(Oc3ccc(C(C)(C)C)cc3)nc3ccccc3n12  -3.63%
41. CCOC(=O)C1CCCCN1Cc1cc(C)c(OC)cc1C (stereo not shown)  -3.65%
42. COc1ccc(S(=O)(=O)N(CC(=O)Nc2ccc(CC#N)cc2)c2ccc(Cl)cc2)cc1  -4.14%
43. COc1ccc(-n2nnnc2S(=O)(=O)CC(=O)N2CCCCC2)cc1  -4.35%
44. O=C1c2ccccc2C(=O)N1c1cccc(N2C(=O)c3ccccc3C2=O)c1  -4.35%
45. CC(C)CNC(=O)CCc1nc(-c2ccc(C(C)(C)C)cc2)no1  -4.95%
46. O=c1c2ccccc2n2c(-c3ccc(O)cc3)nnc2n1Cc1ccccc1Cl  -5.37%
47. Clc1cccc(-c2nc(N3CCC4(CC3)OCCO4)nc3c2COc2ccccc2-3)c1  -6.59%
48. CC(C)Oc1ccc(-c2cc(C(=O)NC3CC3)c3ccccc3n2)cc1  -7.93%
49. CC(C)Cn1c(CN2CC(C)OC(C)C2)nc2c1c(=O)[nH]c(=O)n2C (stereo not shown)  -8.42%
